Hit rate of the full screen: of about 3,200 compounds, about 300 (9.4%) showed activity. Only a part is listed here, and it is no random draw.
Test system: A673/TR/shEF
Assay: cell viability (LOESS-normalised, relative to median of negative controls) (log2 ratio); higher = more viable cells (less compound effect), active = hit call of the paper (over 3 MAD below the median)
Conditions: treatment time: 72 h
Outline: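 A673/TR/shEF Ewing sarcoma cells (1,500 per well, 384-well plates) were grown with or without doxycycline to induce EWS-FLI1 shRNA knockdown, starting 24 h before compounds. Library compounds at two or more concentrations, with DMSO controls, were added for three days. Cell viability was read by CellTiter-Glo luminescence on an Envision reader, then LOESS-corrected per plate, divided by the median of negative controls and log2-transformed. Hits were wells at least three median absolute deviations from the median of all screened wells.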

[1] = 0.25 µM, library screen: screen1, EWS-FLI1 expression: high (no doxycycline)
[2] = 0.25 µM, library screen: screen1, EWS-FLI1 expression: low (doxycycline-induced shRNA knockdown)
[3] = 2.5 µM, library screen: screen1, EWS-FLI1 expression: high (no doxycycline)
[4] = 2.5 µM, library screen: screen1, EWS-FLI1 expression: low (doxycycline-induced shRNA knockdown)
[5] = 0.25 µM, library screen: screen2, EWS-FLI1 expression: high (no doxycycline)
[6] = 0.25 µM, library screen: screen2, EWS-FLI1 expression: low (doxycycline-induced shRNA knockdown)
[7] = 2.5 µM, library screen: screen2, EWS-FLI1 expression: high (no doxycycline)
[8] = 2.5 µM, library screen: screen2, EWS-FLI1 expression: low (doxycycline-induced shRNA knockdown)

Measured: cell viability (log2)

C[N+]12CCC(CC1)C(OC(=O)C(O)(c1ccccc1)c1ccccc1)C2 (stereo unspecified)
inactive: [1] 0.193 | [2] 0.204 | [3] 0.163 | [4] 0.21

CC(=O)OC1CC(OC2C(O)CC(OC3C(O)CC(OC4CCC5(C)C(CCC6C5CC(O)C5(C)C(C7=CC(=O)OC7)CCC65O)C4)OC3C)OC2C)OC(C)C1OC1OC(CO)C(O)C(O)C1O (stereo unspecified)
active: [3] -2.91 | [4] -3.01

CCCN1CCc2cc(O)cc3c2[C@H]1Cc1ccc(O)c(O)c1-3
inactive: [5] 0.252 | [6] 0.00394 | [7] 0.189 | [8] -0.00517

COc1cc2c(cc1OC)[C@@H]1C(=O)c3ccc4oc(C(C)C)cc4c3O[C@@H]1CO2
active: [3] -0.307
inactive: [1] 0.0223 | [2] 0.0518 | [4] -0.129

C[C@]12CC[C@H](O)C[C@H]1CC[C@@H]1[C@@H]2[C@H](O)C[C@]2(C)[C@@H](C3=CC(=O)OC3)CC[C@]12O
active: [3] -0.259 | [4] -0.409

COc1cc([C@@H]2c3cc4c(c(O)c3C[C@H]3COC(=O)[C@@H]32)OCO4)cc(OC)c1OC
active: [3] -3 | [4] -0.852
inactive: [1] 0.0843 | [2] 0.0231

CC(=O)NBr
inactive: [5] 0.153 | [6] 0.0844 | [7] 0.141 | [8] 0.0566

Cc1c2ccncc2c(C)c2c1[nH]c1ccccc12
inactive: [5] 0.0843 | [6] 0.00884 | [8] -0.00745
active: [7] -0.136

COc1cccc(CN2CCN(Cc3cccc(F)c3)CC2)c1
inactive: [1] 0.0335 | [2] 0.131 | [3] 0.0329 | [4] 0.0279

CC(C)NP(=O)(NC(C)C)OP(=O)(NC(C)C)NC(C)C
inactive: [5] 0.195 | [6] 0.0938 | [7] 0.326 | [8] 0.0713

Oc1ccc(Cl)cc1
inactive: [1] 0.148 | [2] 0.145 | [3] 0.212 | [4] 0.167

N#CCCN
inactive: [5] 0.178 | [6] 0.0325 | [7] 0.0955 | [8] 0.0681

C=C(C)[C@@H]1[C@H]2OC(=O)[C@@H]1[C@]1(O)C[C@H]3O[C@]34C(=O)O[C@H]2[C@]14C
inactive: [1] 0.0904 | [2] 0.0443 | [3] 0.13 | [4] 0.128

CC(=O)Oc1ccc(Cl)c2cccnc12
inactive: [1] 0.106 | [2] 0.136 | [3] 0.0698 | [4] 0.0992

O=P1(NCCCl)OCCCN1CCCl (stereo unspecified)
inactive: 0.103 µM, library screen: screen3, EWS-FLI1 expression: high (no doxycycline) 0.0536 | 0.103 µM, library screen: screen3, EWS-FLI1 expression: low (doxycycline-induced shRNA knockdown) 0.037 | 0.308 µM, library screen: screen3, EWS-FLI1 expression: high (no doxycycline) 0.0929 | 0.308 µM, library screen: screen3, EWS-FLI1 expression: low (doxycycline-induced shRNA knockdown) 0.0327 | 0.926 µM, library screen: screen3, EWS-FLI1 expression: high (no doxycycline) 0.108 | 0.926 µM, library screen: screen3, EWS-FLI1 expression: low (doxycycline-induced shRNA knockdown) 0.0888 | 2.8 µM, library screen: screen3, EWS-FLI1 expression: high (no doxycycline) 0.143 | 2.8 µM, library screen: screen3, EWS-FLI1 expression: low (doxycycline-induced shRNA knockdown) 0.0339 | 8.3 µM, library screen: screen3, EWS-FLI1 expression: high (no doxycycline) 0.0862 | 8.3 µM, library screen: screen3, EWS-FLI1 expression: low (doxycycline-induced shRNA knockdown) 0.0777 | 25 µM, library screen: screen3, EWS-FLI1 expression: high (no doxycycline) 0.0979 | 25 µM, library screen: screen3, EWS-FLI1 expression: low (doxycycline-induced shRNA knockdown) 0.0524

NC(=O)CN1CCCC1=O
inactive: [1] 0.113 | [2] -0.0157 | [5] 0.159 | [6] 0.117 | [3] 0.198 | [4] -0.00602 | [7] 0.124 | [8] 0.0664

COc1cc2c(cc1OC)C(C)NCC2 (stereo unspecified)
inactive: [1] 0.121 | [2] 0.123 | [3] 0.193 | [4] 0.143

CCCCN(CC)c1c([N+](=O)[O-])cc(C(F)(F)F)cc1[N+](=O)[O-]
inactive: [1] 0.116 | [2] 0.132 | [3] 0.0478 | [4] 0.194

CC(=O)OC1CCC23C(=O)OC45CCC(C6=CC(=O)OC6)C4(C)CCC2C5CCC3(O)C1 (stereo unspecified)
active: [3] -1.11 | [4] -1.12

CC1=CC(=O)C2=C(C)C[C@H](O)[C@H]3[C@H](C)C(=O)O[C@@H]3C12 (stereo partly specified)
inactive: [1] 0.136 | [2] 0.0103 | [3] 0.161 | [4] 0.0651

Cn1c(=O)c2c(ncn2CCCl)n(C)c1=O
inactive: [1] 0.086 | [2] -0.0151 | [3] -0.000593 | [4] 0.00538

Cc1ccc(S(=O)(=O)N[C@@H](CCCCN)C(=O)CCl)cc1
inactive: [5] 0.171 | [6] 0.0178 | [7] 0.185 | [8] 0.0594

CCCN1CCC[C@@H](c2cccc(O)c2)C1
inactive: [5] 0.197 | [6] 0.0866 | [7] 0.0873 | [8] 0.0807

CCNC(=O)[C@H]1O[C@@H](n2cnc3c(N)ncnc32)[C@H](O)[C@@H]1O
inactive: [5] 0.186 | [6] 0.0998 | [7] 0.0806 | [8] 0.122

Clc1ccc(N2CC3CCC(C2)N3)nn1
inactive: [5] 0.0793 | [6] 0.0488 | [7] 0.0757 | [8] 0.0472

Cc1cccc(C)c1NC1=NCCCS1
inactive: [1] 0.119 | [2] 0.109 | [5] 0.135 | [6] 0.0946 | [3] 0.147 | [4] 0.163 | [7] 0.169 | [8] 0.0803

NCCc1c[nH]c2ccccc12
inactive: [1] 0.0863 | [2] 0.0487 | [5] -0.0607 | [6] 0.0934 | [3] 0.0912 | [4] 0.0293 | [7] 0.0286 | [8] 0.047

C[C@]12CC[C@H](O)C[C@H]1CC[C@@H]1[C@@H]2C[C@@H](O)[C@]2(C)[C@@H](C3=CC(=O)OC3)CC[C@]12O
active: [3] -0.488 | [4] -0.691

O=c1ccc2cc(O[C@@H]3OC(CO)[C@@H](O)C(O)C3O)c(O)cc2o1 (stereo partly specified)
inactive: [1] 0.0986 | [2] -0.0879 | [3] 0.201 | [4] 0.107

CCCSP(=O)(OCC)SCCC
inactive: [1] 0.112 | [2] 0.104 | [3] 0.0625 | [4] 0.0939

CN1CCN(C(=O)OC2c3nccnc3C(=O)N2c2ccc(Cl)cn2)CC1 (stereo unspecified)
inactive: [5] 0.205 | [6] 0.102 | [7] 0.154 | [8] 0.109

From the supplement of paper PMC6089552
